# Results: the supplement of paper PMC8728848
# The list shows a part of the results.
# Assays:
# Experiment in all cases: glycan array binding signal (z-score within array); higher = stronger binding
# Details in all cases: glycan notation: IUPAC condensed, linker removed
# Fuc(a1-2)Gal = molecular target: Fuc(a1-2)Gal
# How it was run: (§1)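 The binding signal is a Z-score computed within each array. Data were drawn from 3228 arrays in the Consortium for Functional Glycomics database, restricted to those with a known protein sequence. Scores were averaged over arrays of the same protein sequence at different concentrations or buffers, and over linkers, and negative values can be taken as non-binding.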
# Fuc(a1-2)Gal(b1-3)GalNAc = molecular target: Fuc(a1-2)Gal(b1-3)GalNAc
# How it was run: as §1
# [1] = molecular target: Fuc(a1-2)Gal(b1-3)GalNAc(a1-3)[Fuc(a1-2)]Gal(b1-4)Glc
# How it was run: as §1
# [2] = molecular target: Fuc(a1-2)Gal(b1-3)GalNAc(a1-3)[Fuc(a1-2)]Gal(b1-4)GlcNAc
# How it was run: as §1
# [3] = molecular target: Fuc(a1-2)Gal(b1-3)GalNAc(b1-3)Gal
# How it was run: as §1
# [4] = molecular target: Fuc(a1-2)Gal(b1-3)GalNAc(b1-3)Gal(a1-4)Gal(b1-4)Glc
# How it was run: as §1
# [5] = molecular target: Fuc(a1-2)Gal(b1-3)GalNAc(b1-4)[Neu5Ac(a2-3)]Gal(b1-4)Glc
# How it was run: as §1
# Fuc(a1-2)Gal(b1-3)GlcNAc = molecular target: Fuc(a1-2)Gal(b1-3)GlcNAc
# How it was run: as §1
# [6] = molecular target: Fuc(a1-2)Gal(b1-3)GlcNAc(b1-2)Man(a1-3)[Fuc(a1-2)Gal(b1-3)GlcNAc(b1-2)Man(a1-6)]Man(b1-4)GlcNAc(b1-4)GlcNAc
# How it was run: as §1
# [7] = molecular target: Fuc(a1-2)Gal(b1-3)GlcNAc(b1-2)Man(a1-3)[Fuc(a1-2)Gal(b1-3)GlcNAc(b1-2)Man(a1-6)]Man(b1-4)GlcNAc(b1-4)[Fuc(a1-6)]GlcNAc
# How it was run: as §1
# [8] = molecular target: Fuc(a1-2)Gal(b1-3)GlcNAc(b1-3)Gal(b1-4)Glc
# How it was run: as §1
# [9] = molecular target: Fuc(a1-2)Gal(b1-3)GlcNAc(b1-3)GalNAc
# How it was run: as §1
# [10] = molecular target: Fuc(a1-2)Gal(b1-3)GlcNAc(b1-3)[Fuc(a1-2)Gal(b1-3)GlcNAc(b1-6)]GalNAc
# How it was run: as §1
# [11] = molecular target: Fuc(a1-2)Gal(b1-3)GlcNAc(b1-3)[Fuc(a1-3)[Gal(b1-4)]GlcNAc(b1-6)]Gal(b1-4)Glc
# How it was run: as §1
# [12] = molecular target: Fuc(a1-2)Gal(b1-3)GlcNAc(b1-3)[Gal(b1-4)GlcNAc(b1-6)]Gal(b1-4)Glc
# How it was run: as §1
# [13] = molecular target: Fuc(a1-2)Gal(b1-3)GlcNAc(b1-3)[Neu5Ac(a2-6)Gal(b1-4)GlcNAc(b1-6)]Gal(b1-4)Glc
# How it was run: as §1
# [14] = molecular target: Fuc(a1-2)Gal(b1-3)GlcNAc6S
# How it was run: as §1
# [15] = molecular target: Fuc(a1-2)Gal(b1-3)[Fuc(a1-4)]GlcNAc
# How it was run: as §1
# [16] = molecular target: Fuc(a1-2)Gal(b1-3)[Fuc(a1-4)]GlcNAc(b1-2)Man(a1-3)[Fuc(a1-2)Gal(b1-3)[Fuc(a1-4)]GlcNAc(b1-2)Man(a1-3)]Man(b1-4)GlcNAc(b1-4)GlcNAc
# How it was run: as §1
# [17] = molecular target: Fuc(a1-2)Gal(b1-3)[Fuc(a1-4)]GlcNAc(b1-2)Man(a1-3)[Fuc(a1-2)Gal(b1-3)[Fuc(a1-4)]GlcNAc(b1-2)Man(a1-6)]Man(b1-4)GlcNAc(b1-4)GlcNAc
# How it was run: as §1
# [18] = molecular target: Fuc(a1-2)Gal(b1-3)[Fuc(a1-4)]GlcNAc(b1-2)Man(a1-3)[Fuc(a1-2)Gal(b1-3)[Fuc(a1-4)]GlcNAc(b1-2)Man(a1-6)]Man(b1-4)GlcNAc(b1-4)[Fuc(a1-6)]GlcNAc(b1-4)[Fuc(a1-6)]GlcNAc
# How it was run: as §1
# [19] = molecular target: Fuc(a1-2)Gal(b1-3)[Fuc(a1-4)]GlcNAc(b1-3)[Fuc(a1-3)[Gal(b1-4)]GlcNAc(b1-6)]Gal(b1-4)Glc
# How it was run: as §1
# [20] = molecular target: Fuc(a1-2)Gal(b1-3)[Fuc(a1-4)]GlcNAc(b1-3)[Gal(b1-4)GlcNAc(b1-6)]Gal(b1-4)Glc
# How it was run: as §1
# [21] = molecular target: Fuc(a1-2)Gal(b1-4)Fuc(a1-3)]GlcNAc(b1-2)Man(a1-3)[Fuc(a1-2)Gal(b1-4)[Fuc(a1-3)]GlcNAc(b1-2)Man(a1-6)]Man(b1-4)GlcNAc(b1-4)GlcNAc
# How it was run: as §1
# Fuc(a1-2)Gal(b1-4)Glc = molecular target: Fuc(a1-2)Gal(b1-4)Glc
# How it was run: as §1
# Fuc(a1-2)Gal(b1-4)Glc6S = molecular target: Fuc(a1-2)Gal(b1-4)Glc6S
# How it was run: as §1
# Fuc(a1-2)Gal(b1-4)GlcNAc = molecular target: Fuc(a1-2)Gal(b1-4)GlcNAc
# How it was run: as §1
# [22] = molecular target: Fuc(a1-2)Gal(b1-4)GlcNAc(b1-2)Man
# How it was run: as §1
# [23] = molecular target: Fuc(a1-2)Gal(b1-4)GlcNAc(b1-2)Man(a1-3)[Fuc(a1-2)Gal(b1-4)GlcNAc(b1-2)Man(a1-6)]Man(b1-4)GlcNAc(b1-4)GlcNAc
# How it was run: as §1
# [24] = molecular target: Fuc(a1-2)Gal(b1-4)GlcNAc(b1-2)Man(a1-3)[Fuc(a1-2)Gal(b1-4)GlcNAc(b1-2)Man(a1-6)]Man(b1-4)GlcNAc(b1-4)[Fuc(a1-6)]GlcNAc
# How it was run: as §1
binder,measurement,setting,value
"rCNL (Clitocybe nebularis), B2ZRS9 (protein) SITPGTYNITNVAYTNRLIDLTGSNPAENTLIIGHHLNKTPSGYGNQQWTLVQLPHTTIYTMQAVNPQSYVRVRDDNLVDGAALVGSQQPTPVSIESAGNSGQFRIKIPNLGLALTLPSDANSTPIVLGEVDETSTNQLWAFESVSAV",glycan array binding signal (z-score),Fuc(a1-2)Gal,-0.303
same,glycan array binding signal (z-score),Fuc(a1-2)Gal(b1-3)GalNAc,-0.244
same,glycan array binding signal (z-score),[1],0.063
same,glycan array binding signal (z-score),[2],0.333
same,glycan array binding signal (z-score),[3],-0.28
same,glycan array binding signal (z-score),[4],-0.262
same,glycan array binding signal (z-score),[5],-0.254
same,glycan array binding signal (z-score),Fuc(a1-2)Gal(b1-3)GlcNAc,-0.298
same,glycan array binding signal (z-score),[6],-0.235
same,glycan array binding signal (z-score),[7],-0.185
same,glycan array binding signal (z-score),[8],-0.195
same,glycan array binding signal (z-score),[9],-0.226
same,glycan array binding signal (z-score),[10],-0.211
same,glycan array binding signal (z-score),[11],-0.049
same,glycan array binding signal (z-score),[12],-0.212
same,glycan array binding signal (z-score),[13],-0.227
same,glycan array binding signal (z-score),[14],-0.21
same,glycan array binding signal (z-score),[15],-0.295
same,glycan array binding signal (z-score),[16],-0.032
same,glycan array binding signal (z-score),[17],-0.326
same,glycan array binding signal (z-score),[18],-0.21
same,glycan array binding signal (z-score),[19],-0.273
same,glycan array binding signal (z-score),[20],-0.304
same,glycan array binding signal (z-score),[21],-0.227
same,glycan array binding signal (z-score),Fuc(a1-2)Gal(b1-4)Glc,-0.3
same,glycan array binding signal (z-score),Fuc(a1-2)Gal(b1-4)Glc6S,-0.246
same,glycan array binding signal (z-score),Fuc(a1-2)Gal(b1-4)GlcNAc,-0.266
same,glycan array binding signal (z-score),[22],-0.207
same,glycan array binding signal (z-score),[23],-0.079
same,glycan array binding signal (z-score),[24],-0.116
